Source: PubChem BioAssay AID588855 (National Center for Advancing Translational Sciences (NCATS), 2011)
In all, about 410,000 compounds went through this assay and about 5,000 (1.2%) were called active. The shares of active, inactive and inconclusive entries below differ from those in the screen. Calls follow the shape of the dose curve; as a rule, active = well fitted inhibition curve with a large enough effect; inconclusive = small, poorly fitted or top-dose-only effect; inactive = no such curve, though single readings can be large or run the other way. Where the call is inconclusive, the potency comes from a doubtful curve fit.

Assay: qHTS for Inhibitors of TGF-b; also: nearly all actives have a fitted effect of over 65% in size
Conditions: HepG2 CAGA-GFP TGF-b/SMAD3 reporter, GFP fluorescence, 18 h, TGF-beta stimulated, 500 pg/mL final; series mostly up to 46.1 µM
How it was run: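 Using HEPG2 CAGA-GFP reporter cells at 1000 cells/well, we pinned test compounds, stimulated with recombinant TGF-beta (500 pg/mL final) and measured total well GFP after 18 h.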
Potency is read from the fitted curve at half-maximal effect; tags tell the direction and shape of the fitted curve.

Structure (SMILES) | Potency
COc1ccc(-c2cc(C3C4C=CCCC4(C)C(=O)N3Cc3ccccc3)ccc2F)cc1 (configuration not stated) | active: 11.2 µM
Cc1cccc(NC(=S)NCc2ccccc2Cl)c1C | inconclusive: 25.1 µM [inhibitor, single point]
COc1cc(NC(=O)c2ccco2)c(OC)cc1NC(=O)CSc1ncc(-c2ccc(F)cc2)[nH]1 | inactive
Cc1ccc(S(=O)(=O)Nc2cccc(C(=O)N3CCN(c4ccccc4O)CC3)c2)cc1F | inactive
O=C(c1cc(-c2ccccc2)nc2ccccc12)N1CCN(c2ccccn2)CC1 | inactive
CCC(C(=O)Oc1c(C(C)C)cccc1C(C)C)c1ccccc1 (configuration not stated) | inconclusive: 2.24 µM [inhibitor, full curve]
CC1(C)Cc2c(C#N)c(N3CCN(C(=O)c4ccco4)CC3)nc(-c3ccco3)c2CS1 | inactive
COCC(C)N1C(=O)Cc2c1nc(N)c1c(N)nc(N3CCN(c4ccccc4F)CC3)c(C#N)c21 (configuration not stated) | inactive
Cc1ccc(NC(=O)COC(=O)C2(CC(=O)NC(C)(C)C)CCCC2)cc1C | inactive
COc1ccc2c(c1OC)C(=O)OC2N1C(=O)CC[C@H]1C(=O)Nc1ccc2c(c1)OCO2 (some centres not stated) | inactive
CC(C)Oc1ccc(CNC(=S)N/N=C/c2cccnc2)cc1 | inconclusive: 35.5 µM [inhibitor, single point]
Cc1cc(C)cc(OCc2cc(=O)n3cc(C)sc3n2)c1 | inactive
Cc1ccc(NC(=O)C(OC(=O)c2cc(C)oc2C)c2ccccc2)cc1 (configuration not stated) | inconclusive: 25.1 µM [inhibitor, single point]
Cc1cc(Cl)ccc1Oc1ncnc2onc(C)c12 | inactive
CCc1nc(OCCN(CC)CC)c2oc3ccccc3c2n1 | inactive
Cc1nc([N+](=O)[O-])c(SCC(N)=O)n1Cc1ccccc1 | inactive
COc1ccc(C(Nc2ccc(S(=O)(=O)NCC3CCCO3)cc2)C(=O)NC(C)(C)C)cc1OC (configuration not stated) | inactive
O=C1N(CN2CCN(c3cccc(Cl)c3)CC2)c2ccccc2C12OCCCO2 | inactive
O=[N+]([O-])c1cccc(/C=C2\CCc3cnn(C4CCS(=O)(=O)C4)c32)c1 (configuration not stated) | inactive
CC1S/C(=N/N=C2CCC(C(C)(C)C)CC2)NC1=O (configuration not stated) | inconclusive: 35.5 µM [inhibitor, single point]
Cn1c(=N)n(CC(=O)O)c2ccccc21 | inconclusive: 20 µM [inhibitor, single point]
Cc1cccc(Oc2ncnc3oc(-c4ccccc4)cc23)c1C | inactive
COc1ccc(CCNC(=O)c2cc(-c3ccc4c(c3)OCO4)on2)cc1OC | inconclusive: 35.5 µM [inhibitor, single point]
Cc1cc(/C=C2\C=Cc3ccccc32)ccc1N(C)C | inactive

Structure (SMILES) | Potency
COc1ccc(NC(=S)N2CCC(N(C)CCN3CCOCC3)CC2)cc1 | inconclusive: 3.98 µM [inhibitor, single point]
Cc1ccc2oc(=O)c3cc(C(=O)NCCCN4CCN(C)CC4)sc3c2c1 | inactive
O=C(CCCC(=O)N(c1cccc(F)c1)C(C(=O)NC1CCCC1)c1ccc(O)cc1)Nc1ccccn1 (configuration not stated) | inconclusive: 35.5 µM [inhibitor, single point]
COc1ccc2oc(C(=O)OCC(=O)NC3CCS(=O)(=O)C3)c(C)c2c1 (configuration not stated) | inactive
COc1ccccc1-c1cc(NC(=O)COc2ccccc2Cl)n(-c2ccccc2)n1 | inconclusive: 5.62 µM [inhibitor, single point]
COC(=O)c1cc2n(n1)CCN(Cc1ccc(OC)cc1)C2=O | inconclusive: 17.8 µM [inhibitor, partial curve, poor fit]
C=CCNC(=O)COc1ccc(N(C)S(=O)(=O)c2ccc(NC(C)=O)cc2)cc1 | inconclusive: 6.31 µM [inhibitor, single point]
Cc1cc(C)n(C(=O)c2cccc(S(=O)(=O)N3CCCCC3)c2)n1 | inconclusive: 25.1 µM [inhibitor, partial curve, poor fit]
CC(NC(=O)C(=O)c1cn(CC(=O)N2CCCC2)c2ccccc12)c1ccccc1 (configuration not stated) | inconclusive: 0.794 µM [inhibitor, full curve, poor fit]
COCCOC(=O)C(CC(=O)O)NCc1ccco1 (configuration not stated) | inconclusive: 3.98 µM [inhibitor, single point]
Oc1ccc(CN2CCc3ccccc3C2)c2cccnc12 | inconclusive: 6.31 µM [inhibitor, single point]
CCc1ccc(N2CCN(S(=O)(=O)CC34CCC(CC3=O)C4(C)C)CC2)cc1 (configuration not stated) | inactive
Cc1ccc(S(=O)(=O)N(CC(O)CN2C(=O)NC(C)(C)C2=O)c2cccc([N+](=O)[O-])c2)cc1 (configuration not stated) | inconclusive: 10 µM [inhibitor, single point]
C=CCNc1sc(C(=O)c2ccc(Br)s2)c(N)c1C#N | inconclusive: 1.41 µM [inhibitor, partial curve, poor fit]
CN1CCO/C1=C(\C(Cl)=C(Cl)Cl)[N+](=O)[O-] | inactive
COc1ccccc1N1CCN(Cc2cc(=O)oc3cc(C)cc(C)c23)CC1 | inactive
COc1cc(C2C(C(=O)c3ccc(C)o3)=C(O)C(=O)N2c2cc(C)on2)ccc1OCc1ccccc1 (configuration not stated) | inactive
O=C(c1ccc([N+](=O)[O-])s1)N1CCCc2ccccc21 | inconclusive: 22.4 µM [inhibitor, single point]
CCN(CC(=O)Nc1c(F)cccc1F)C(=O)c1ccc(S(=O)(=O)NCc2ccco2)cc1 | inconclusive: 3.16 µM [inhibitor, partial curve, poor fit]
O=C(CBr)c1ccc([N+](=O)[O-])c(CS(=O)(=O)c2ccc(Cl)cc2)c1 | inconclusive: 35.5 µM [inhibitor, single point]
O=C(NCCN1CCCCC1)Nc1ccc(Br)cc1 | inconclusive: 5.62 µM [inhibitor, single point]
CN(C)C(=O)c1cccc(-c2cnc3c(NC=O)cc(-c4ccccc4Cl)cn23)c1 | active: 12.6 µM
COc1cc(OC)c(/C=C/c2cc3ccccc3c[n+]2C)c(OC)c1 | active: 7.94 µM
COc1cccc(CN2CCC2(C)C(=O)Nc2cccc3cccnc23)c1OC (configuration not stated) | active: 11.2 µM

Structure (SMILES) | Potency
CCN(C(=O)C1CCN(S(=O)(=O)c2ccc3c(c2)oc(=O)n3C)CC1)c1cccc(C)c1 | inconclusive: 35.5 µM [inhibitor, single point]
Cc1ccc(C)c(S(=O)(=O)NCc2ccc(C(=O)NCc3ccco3)cc2)c1 | inconclusive: 35.5 µM [inhibitor, single point]
O=C(Nc1ccc(NC(=S)NC(=O)c2ccccc2Cl)cc1)c1cccc(Cl)c1 | inactive
Cc1ccc(C)c(NC(=O)C2CCN(c3nn4c(=O)cc(C)nc4s3)CC2)c1 | inactive
CCc1nc2ccc(C(=O)Nc3ccc(OC)c(OC)c3)cn2c1N(C)CCC(C)C | active: 14.1 µM
COc1cc(-c2nc(-c3ccccc3)c(-c3cccs3)[nH]2)cc(OC)c1O | inconclusive: 35.5 µM [inhibitor, partial curve, poor fit]
Cc1ccc(C(=O)N2CCc3cc4c(cc3C2C)OCCCO4)cc1 (configuration not stated) | inconclusive: 10 µM [inhibitor, partial curve, poor fit]
COC(=O)Cn1c(=O)c(=O)n(CC(=O)OC)c2ccccc21 | inconclusive: 10 µM [inhibitor, partial curve, poor fit]
Cc1cc(C)c[n+](C(C)C(=O)c2ccc(-c3ccccc3)cc2)c1 (configuration not stated) | inconclusive: 15.8 µM [inhibitor, single point]
C=C1[C@@H](O)CN(Cc2ccc(OC)cc2)S1(=O)=O | inconclusive: 11.2 µM [inhibitor, single point]
FC(F)(F)c1cc(CCN2CCNC[C@@H]2Cc2ccccc2)cc(C(F)(F)F)c1 | inconclusive: 35.5 µM [inhibitor, single point]
O=C(/C=C/c1ccc(Cl)cc1Cl)N1CCc2ccccc21 | inconclusive: 3.55 µM [inhibitor, single point]
CCOC(=O)N1CCN(C(=O)CN(c2ccc(Cl)c(C(F)(F)F)c2)S(C)(=O)=O)CC1 | inconclusive: 35.5 µM [inhibitor, single point]
C[C@@H]1C=C(C(=O)N2CCN(Cc3ccccc3)CC2)O[C@H](OCc2ccc(CO)cc2)C1 | inactive
CNC(=O)Cn1c(=O)c2cccn2c2ccc(F)cc21 | inactive
O=C(COC(=O)c1cccc(C(=O)OCC(=O)NCc2ccc(F)cc2)n1)NCc1ccc(F)cc1 | inconclusive: 12.6 µM [inhibitor, single point]
COCCN(Cc1cc2ccc(C)cc2n2nnnc12)Cc1nnnn1C(C)(C)C | inconclusive: 35.5 µM [inhibitor, single point]
CCN1CCN(C(=O)C(NS(=O)(=O)c2ccc3nc(C)sc3c2)C(C)C)CC1 (configuration not stated) | inconclusive: 35.5 µM [inhibitor, single point]
COc1ccc(CCN(Cc2cccs2)S(=O)(=O)c2ccc(S(=O)(=O)N3CCC(C)CC3)cc2)cc1OC | inactive
Cc1ccc(C(=O)/C=C/c2ccc(-c3ccc(C)cc3)o2)cc1 | inactive
CCOc1ccccc1N1CCN(C(=O)c2cccc(S(=O)(=O)N3CCOCC3)c2)CC1 | inconclusive: 22.4 µM [inhibitor, partial curve, poor fit]
CC(C)(C)c1ccc(C(=O)Nc2ccc(C(=O)N3CCOCC3)cc2)cc1 | inactive
COc1ccc(/C=N/NC(=O)c2cccnc2)cc1CSc1nc2ccccc2s1 | inconclusive: 14.1 µM [inhibitor, single point]
C(=C\CSc1nnnn1-c1ccccc1)/CSc1nnnn1-c1ccccc1 | inactive
